Measured values published in article PMC10243363 (ACS chemical neuroscience, 2022).

Details: 0.1 μM, plus 1 mM UDPGA, first-order kinetics

Structure (SMILES): CN(C(=O)/C=C/c1ccoc1)[C@@H]1CC[C@@]2(O)[C@H]3Cc4ccc(O)c5c4[C@@]2(CCN3CC2CC2)[C@H]1O5.Cl [Compound 11, (2E)-N-[6β-17-(Cyclopropylmethyl)-3,14-dihydroxy-4,5α-epoxy-morphinan-6-yl]-3-(3-furanyl)-N-methyl-2-propenamide hydrochloride]
- T1/2 (human liver S9): > 1 h
